Laboratory results as given in the supplement of paper PMC8728848.
Some of the results follow.

Tests used:
Experiment in all cases: glycan array binding signal (z-score within array); higher = stronger binding
Conditions in all cases: glycan notation: IUPAC condensed, linker removed
[1] = target: Gal(b1-4)GlcNAc(b1-3)Gal(b1-4)GlcNAc(b1-2)Man(a1-3)[Gal(b1-4)GlcNAc(b1-3)Gal(b1-4)GlcNAc(b1-2)Man(a1-6)]Man(b1-4)GlcNAc(b1-4)[Fuc(a1-6)]GlcNAc
Summary of the method: (§1)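 Glycan array data came from 3228 arrays in the Consortium for Functional Glycomics database, and only arrays with an available protein sequence were kept. Glycan names were put into IUPAC-condensed notation, and columns mapping to the same glycan were averaged. The binding signal is a within-array Z-score, averaged across arrays of one protein sequence run at different concentrations or buffers and across linkers. A negative Z-score can be read as non-binding.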

[2] = target: Gal(b1-4)GlcNAc(b1-3)Gal(b1-4)GlcNAc(b1-2)[Gal(b1-4)GlcNAc(b1-3)Gal(b1-4)GlcNAc(b1-6)]Man(a1-6)[Gal(b1-4)GlcNAc(b1-3)Gal(b1-4)GlcNAc(b1-2)Man(a1-3)]Man(b1-4)GlcNAc(b1-4)GlcNAc
Summary of the method: as §1

[3] = target: Gal(b1-4)GlcNAc(b1-3)Gal(b1-4)GlcNAc(b1-2)[Gal(b1-4)GlcNAc(b1-3)Gal(b1-4)GlcNAc(b1-6)]Man(a1-6)[Gal(b1-4)GlcNAc(b1-3)Gal(b1-4)GlcNAc(b1-2)Man(a1-3)]Man(b1-4)GlcNAc(b1-4)[Fuc(a1-6)]GlcNAc
Summary of the method: as §1

[4] = target: Gal(b1-4)GlcNAc(b1-3)Gal(b1-4)GlcNAc(b1-3)Gal(b1-4)GlcNAc
Summary of the method: as §1

[5] = target: Gal(b1-4)GlcNAc(b1-3)Gal(b1-4)GlcNAc(b1-3)Gal(b1-4)GlcNAc(b1-2)Man(a1-3)[Gal(b1-4)GlcNAc(b1-3)Gal(b1-4)GlcNAc(b1-3)Gal(b1-4)GlcNAc(b1-2)Man(a1-6)]Man(b1-4)GlcNAc(b1-4)GlcNAc
Summary of the method: as §1

[6] = target: Gal(b1-4)GlcNAc(b1-3)Gal(b1-4)GlcNAc(b1-3)Gal(b1-4)GlcNAc(b1-2)Man(a1-3)[Gal(b1-4)GlcNAc(b1-3)Gal(b1-4)GlcNAc(b1-3)Gal(b1-4)GlcNAc(b1-2)Man(a1-6)]Man(b1-4)GlcNAc(b1-4)[Fuc(a1-6)]GlcNAc
Summary of the method: as §1

[7] = target: Gal(b1-4)GlcNAc(b1-3)Gal(b1-4)GlcNAc(b1-3)Gal(b1-4)GlcNAc(b1-2)[Gal(b1-4)GlcNAc(b1-3)Gal(b1-4)GlcNAc(b1-3)Gal(b1-4)GlcNAc(b1-6)]Man(a1-6)[Gal(b1-4)GlcNAc(b1-3)Gal(b1-4)GlcNAc(b1-3)Gal(b1-4)GlcNAc(b1-2)Man(a1-3)]Man(b1-4)GlcNAc(b1-4)[Fuc(a1-6)]GlcNAc
Summary of the method: as §1

[8] = target: Gal(b1-4)GlcNAc(b1-3)Gal(b1-4)GlcNAc(b1-3)Gal(b1-4)GlcNAc(b1-3)Gal(b1-4)GlcNAc(b1-2)Man(a1-3)[Gal(b1-4)GlcNAc(b1-3)Gal(b1-4)GlcNAc(b1-3)Gal(b1-4)GlcNAc(b1-3)Gal(b1-4)GlcNAc(b1-2)Man(a1-6)]Man(b1-4)GlcNAc(b1-4)GlcNAc
Summary of the method: as §1

[9] = target: Gal(b1-4)GlcNAc(b1-3)Gal(b1-4)GlcNAc(b1-3)Gal(b1-4)GlcNAc(b1-3)Gal(b1-4)GlcNAc(b1-2)Man(a1-3)[Gal(b1-4)GlcNAc(b1-3)Gal(b1-4)GlcNAc(b1-3)Gal(b1-4)GlcNAc(b1-3)Gal(b1-4)GlcNAc(b1-2)Man(a1-6)]Man(b1-4)GlcNAc(b1-4)[Fuc(a1-6)]GlcNAc
Summary of the method: as §1

[10] = target: Gal(b1-4)GlcNAc(b1-3)Gal(b1-4)GlcNAc(b1-3)Gal(b1-4)GlcNAc(b1-3)Gal(b1-4)GlcNAc(b1-2)[Gal(b1-4)GlcNAc(b1-3)Gal(b1-4)GlcNAc(b1-3)Gal(b1-4)GlcNAc(b1-3)Gal(b1-4)GlcNAc(b1-6)]Man(a1-6)[Gal(b1-4)GlcNAc(b1-3)Gal(b1-4)GlcNAc(b1-3)Gal(b1-4)GlcNAc(b1-3)Gal(b1-4)GlcNAc(b1-2)Man(a1-3)]Man(b1-4)GlcNAc(b1-4)[Fuc(a1-6)]GlcNAc
Summary of the method: as §1

[11] = target: Gal(b1-4)GlcNAc(b1-3)Gal(b1-4)GlcNAc(b1-3)Gal(b1-4)GlcNAc(b1-3)Gal(b1-4)GlcNAc(b1-3)Gal(b1-4)GlcNAc(b1-2)Man(a1-3)[Gal(b1-4)GlcNAc(b1-3)Gal(b1-4)GlcNAc(b1-3)Gal(b1-4)GlcNAc(b1-3)Gal(b1-4)GlcNAc(b1-3)Gal(b1-4)GlcNAc(b1-2)Man(a1-6)]Man(b1-4)GlcNAc(b1-4)GlcNAc
Summary of the method: as §1

[12] = target: Gal(b1-4)GlcNAc(b1-3)Gal(b1-4)GlcNAc(b1-3)Gal(b1-4)GlcNAc(b1-3)Gal(b1-4)GlcNAc(b1-3)Gal(b1-4)GlcNAc(b1-2)Man(a1-3)[Gal(b1-4)GlcNAc(b1-3)Gal(b1-4)GlcNAc(b1-3)Gal(b1-4)GlcNAc(b1-3)Gal(b1-4)GlcNAc(b1-3)Gal(b1-4)GlcNAc(b1-2)Man(a1-6)]Man(b1-4)GlcNAc(b1-4)[Fuc(a1-6)]GlcNAc
Summary of the method: as §1

[13] = target: Gal(b1-4)GlcNAc(b1-3)Gal(b1-4)GlcNAc(b1-3)Gal(b1-4)GlcNAc(b1-3)Gal(b1-4)GlcNAc(b1-3)Gal(b1-4)GlcNAc(b1-2)[Gal(b1-4)GlcNAc(b1-3)Gal(b1-4)GlcNAc(b1-3)Gal(b1-4)GlcNAc(b1-3)Gal(b1-4)GlcNAc(b1-3)Gal(b1-4)GlcNAc(b1-6)]Man(a1-6)[Gal(b1-4)GlcNAc(b1-3)Gal(b1-4)GlcNAc(b1-3)Gal(b1-4)GlcNAc(b1-3)Gal(b1-4)GlcNAc(b1-3)Gal(b1-4)GlcNAc(b1-2)Man(a1-3)]Man(b1-4)GlcNAc(b1-4)[Fuc(a1-6)]GlcNAc
Summary of the method: as §1

[14] = target: Gal(b1-4)GlcNAc(b1-3)Gal(b1-4)GlcNAc(b1-3)Gal(b1-4)GlcNAc(b1-3)Gal(b1-4)GlcNAc(b1-3)Gal(b1-4)GlcNAc(b1-3)Gal(b1-4)GlcNAc(b1-2)Man(a1-3)[Gal(b1-4)GlcNAc(b1-3)Gal(b1-4)GlcNAc(b1-3)Gal(b1-4)GlcNAc(b1-3)Gal(b1-4)GlcNAc(b1-3)Gal(b1-4)GlcNAc(b1-3)Gal(b1-4)GlcNAc(b1-2)Man(a1-6)]Man(b1-4)GlcNAc(b1-4)GlcNAc
Summary of the method: as §1

[15] = target: Gal(b1-4)GlcNAc(b1-3)Gal(b1-4)GlcNAc(b1-3)GalNAc
Summary of the method: as §1

[16] = target: Gal(b1-4)GlcNAc(b1-3)Gal(b1-4)GlcNAc(b1-3)[Gal(b1-4)GlcNAc(b1-3)Gal(b1-4)GlcNAc(b1-6)]GalNAc
Summary of the method: as §1

[17] = target: Gal(b1-4)GlcNAc(b1-3)Gal(b1-4)GlcNAc(b1-6)[Gal(b1-3)]GalNAc
Summary of the method: as §1

[18] = target: Gal(b1-4)GlcNAc(b1-3)Gal(b1-4)[Fuc(a1-3)]GlcNAc(b1-3)Gal(b1-4)[Fuc(a1-3)]GlcNAc
Summary of the method: as §1

[19] = target: Gal(b1-4)GlcNAc(b1-3)GalNAc
Summary of the method: as §1

[20] = target: Gal(b1-4)GlcNAc(b1-3)[Fuc(a1-3)GlcNAc(b1-6)]Gal(b1-4)Glc
Summary of the method: as §1

[21] = target: Gal(b1-4)GlcNAc(b1-3)[Gal(b1-4)GlcNAc(b1-6)]Gal(b1-4)GlcNAc
Summary of the method: as §1

[22] = target: Gal(b1-4)GlcNAc(b1-3)[GlcNAc(b1-6)]Gal(b1-4)GlcNAc
Summary of the method: as §1

B1: LgFlo1 (Saccharomyces pastorianus), B3IUA8 (protein)
chain: SGSTQACLPVGSRKNGMNVNFYKYSLQDSTTYSDPQYMAYKYSDTKKLGSVSGQTHLSIYYGPNTAFWNTASWSSDLFGFYTTPTNVTVEMTGYFLPPQTGSYTFKFATVDDSAILSVGGSIAFECCAQEQPPITSTDFTINGIKPWDAATPTDIKGSTYMYAGYYYPIKIVYSNAKALARLPVSVVLPDGTEVNDDFEGYVYSFDDDLSQSNCTIPDPSKHTTS
Question: For B1, which “glycan array binding signal (z-score)” value [1] is on record?
Answer: -0.163

Question: And the “glycan array binding signal (z-score)” value [2]?
Answer: -0.148

Question: What about the “glycan array binding signal (z-score)” value [3] of the same binder?
Answer: 0.012

Question: And the “glycan array binding signal (z-score)” value [4]?
Answer: -0.309

Question: What about the “glycan array binding signal (z-score)” value [5] of the same binder?
Answer: 0.236

Question: What about the “glycan array binding signal (z-score)” value [6] of the same binder?
Answer: -0.238

Question: What about the “glycan array binding signal (z-score)” value [7] of the same binder?
Answer: 0.239

Question: What about the “glycan array binding signal (z-score)” value [8] of the same binder?
Answer: 0.015

Question: What about the “glycan array binding signal (z-score)” value [9] of the same binder?
Answer: -0.183

Question: And the “glycan array binding signal (z-score)” value [10]?
Answer: 0.383

Question: What about the “glycan array binding signal (z-score)” value [11] of the same binder?
Answer: -0.16

Question: What about the “glycan array binding signal (z-score)” value [12] of the same binder?
Answer: 0.003

Question: And the “glycan array binding signal (z-score)” value [13]?
Answer: -0.153

Question: What about the “glycan array binding signal (z-score)” value [14] of the same binder?
Answer: -0.004

Question: And the “glycan array binding signal (z-score)” value [15]?
Answer: -0.442

Question: And the “glycan array binding signal (z-score)” value [16]?
Answer: -0.087

Question: What about the “glycan array binding signal (z-score)” value [17] of the same binder?
Answer: -0.423

Question: What about the “glycan array binding signal (z-score)” value [18] of the same binder?
Answer: -0.245

Question: And the “glycan array binding signal (z-score)” value [19]?
Answer: -0.314

Question: And the “glycan array binding signal (z-score)” value [20]?
Answer: -0.412

Question: And the “glycan array binding signal (z-score)” value [21]?
Answer: -0.289

Question: What about the “glycan array binding signal (z-score)” value [22] of the same binder?
Answer: -0.09
